Experimental findings from the supplement of paper PMC10126150 are described below.

This series concerns ATP. The series can be described thus: switch fluorescence ratio, 500 uM ATP over buffer (Cy3 cluster intensity, sum of 5 cycles each) (fold (ratio)); higher = stronger signal-on switching upon ATP binding; sequences stand for … in TCGTCGGCAGCGTCAGATGTGTATAAGAGACAGTTTTTTTTTTTTTTTTTTTTTTTTT…TC. To be noted: aptamer strand: ATP DNA aptamer (quencher-CACCTGGGGGAGTATTGCGGAGGAAGG + anchor), 100 nM annealed; ATP concentration: 500 uM; one replicate. The method, boiled down:
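Cy3-labelled switching-strand clusters on a modified Illumina MiSeq flow-cell were annealed to 100 nM quencher-labelled ATP aptamer and imaged first in selection buffer, then after 15 min with 500 uM ATP at 22 °C. NaOH stripping and re-annealing separated each of five buffer/ATP cycles, and clusters outside 100-1000 RFU were excluded. The fluorescence ratio sums target-cycle Cy3 intensity over buffer-cycle Cy3 intensity per cluster and averages it per switch-domain sequence.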

Sequences with one replicate were seen in a single cluster, so their values are uncertain.
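Further: ATP exposure 15 min at 22 °C before imaging.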

As for ACTGTGAGTG, the switch fluorescence ratio was 1.06.
On to GACTGAGATA, for which the switch fluorescence ratio stood at 1.04.
For AGGGCTGTGG, the switch fluorescence ratio is 1.04.
Consider TCACACGGAT, for which the switch fluorescence ratio was determined as 1.01.
With TTCATTTCTT the figure was 0.999; with GCTGTTAGTC, 1.01; with CCCCTTTTGC, 1.03.
As for TTAAATAAGC, the switch fluorescence ratio worked out at 0.999.
For GTTGCTGTC, the switch fluorescence ratio worked out at 0.933.
GTCTTAATCT: the switch fluorescence ratio came out at 0.98.
Take GATTGGGGT: the switch fluorescence ratio came out at 0.986.
With GTGACCATAC, the switch fluorescence ratio was determined as 1.74.
Regarding GGGACTCTAG, the switch fluorescence ratio came out at 1.02.
For GAGGCGAGTT, the switch fluorescence ratio was 1.01.
With AATCAAGGTA the figure was 0.989; with ACTCTGGGTA, 0.981.
Consider CAAGCTGTTG, for which the switch fluorescence ratio turned out to be 0.947.
GCTGTTCGGC: the switch fluorescence ratio worked out at 1.01.
The same measure for TGGGTGATTC: 1.02.
Consider GCCGGGACTT, for which the switch fluorescence ratio amounted to 1.03.
With TGCGAACCTC the figure was 1.04; with ACACACCGAT, 1.2.
GGATTACACG: the switch fluorescence ratio worked out at 1.09.
On to GAAAATATAT, for which the switch fluorescence ratio was 0.999.
Regarding TGATGCACTT, the switch fluorescence ratio was found to be 1.14.
Consider CCGGGCGGCG, for which the switch fluorescence ratio was determined as 0.991.
Take GACGTCTTTA: the switch fluorescence ratio stood at 1.01.
As to CTTTGTGCTA, the switch fluorescence ratio was found to be 1.03.
With CCCAGGAAC the figure was 1.05; with AGTCTACTTG, 0.991.
As for ATGCAAATTA, the switch fluorescence ratio is 1.02.
For CCCGGACCTT, the switch fluorescence ratio stood at 1.24.
The same measure for AGGGAGGCTT: 1.01; for GCCTAATGAT: 0.962.
As for ATCAGTCAGC, the switch fluorescence ratio came to 0.972.
With ATGGCTAGGT the figure was 0.999.
With TTTTCTGCAG the figure was 1.02; with AGCGCTACAG, 1.02.
Take GTAACTAAAT: the switch fluorescence ratio worked out at 1.
As for CCACCTGATA, the switch fluorescence ratio stood at 1.07.
As to ATCCGGAGTA, the switch fluorescence ratio came to 1.43.
In the case of ACCATGGGCG, the switch fluorescence ratio worked out at 1.
For TGCATAAAGT, the switch fluorescence ratio worked out at 0.997.
For ATGCCGGCA, the switch fluorescence ratio was determined as 1.04.
On to CTGATTGGGG, for which the switch fluorescence ratio is 0.962.
Turning to ATAAGTGGAA, the switch fluorescence ratio turned out to be 1.
Consider CTGCGTTCCG, for which the switch fluorescence ratio came out at 0.999.
Regarding CTGATGGGGG, the switch fluorescence ratio came out at 0.99.
AGTGCTGTG: the switch fluorescence ratio turned out to be 0.99.
Take TGAGTGCGGC: the switch fluorescence ratio turned out to be 0.8.
In the case of AACGCCGAAA, the switch fluorescence ratio is 1.16.
Consider AAACGGAGTC, for which the switch fluorescence ratio is 0.945.
As to TATTTCGATC, the switch fluorescence ratio amounted to 0.998.
Take AGAAGCGCCC: the switch fluorescence ratio was 1.01.
The same measure for CCGGCGATGG: 1.68; for GGTTCCTCGA: 0.983; for TTCTGTGAGG: 0.985.
With CGTCCTTCAG the figure was 0.996.
As for GGTAAGTGTA, the switch fluorescence ratio turned out to be 0.96.
Take GGTTAGCTCG: the switch fluorescence ratio was determined as 0.983.
As to TCAATTGGGG, the switch fluorescence ratio was 0.972.
Turning to ATTCGCATGG, the switch fluorescence ratio came to 1.32.
Turning to ACTAGCAGC, the switch fluorescence ratio stood at 1.1.
With AAGCCTACGC the figure was 1.16; with TTGAGGGCT, 1.03.
Turning to CTTAAATGAG, the switch fluorescence ratio is 0.982.
For CGACAGTCAG, the switch fluorescence ratio came to 1.03.
On to GGGTGGAATG, for which the switch fluorescence ratio was found to be 0.994.
For ATGCAACGTA, the switch fluorescence ratio worked out at 1.05.
For CGCGTTAAAG, the switch fluorescence ratio was 0.974.
With TCTTTCATTA the figure was 1.07; with AAAGCGGGTA, 0.987.
For the sequence TTCGCGGGAA, the switch fluorescence ratio is 1.06.
Regarding AGCTAGAGGT, the switch fluorescence ratio is 0.988.
Turning to GTCTAAGAGG, the switch fluorescence ratio was determined as 1.06.
As to TTCGTCTGAA, the switch fluorescence ratio is 0.965.
The same measure for GAACGTTCTG: 0.999.
With AACGGGCAAT the figure was 1.39; with GAAAAAGTC, 1.01.
On to GGACCGAGAT, for which the switch fluorescence ratio stood at 1.02.
The same measure for AATTTGTGCC: 1.07; for GGCCGGGATT: 1.04; for CGGTGAGTTT: 0.945.
The same measure for CAATAGCACT: 1.12; for TTAAGGCTA: 1.01.
As for TGATGGGTTC, the switch fluorescence ratio stood at 0.969.
For the sequence TATTGGATCC, the switch fluorescence ratio turned out to be 1.01.
Turning to GGGGTGCGTC, the switch fluorescence ratio came to 1.
Regarding GTTATGCGAG, the switch fluorescence ratio came to 0.972.
With CTGACTGGG, the switch fluorescence ratio is 1.06.
With TTGAAGGAAT the figure was 0.99.
For the sequence TTCCTTATTG, the switch fluorescence ratio worked out at 0.964.
For ACCTGGGAC, the switch fluorescence ratio is 1.03.
TCCAGCCACT: the switch fluorescence ratio stood at 1.04.
The same measure for GACCATGTTC: 1.02.
For the sequence GATTCGTTGG, the switch fluorescence ratio amounted to 1.
For CGTTTCGGTG, the switch fluorescence ratio worked out at 1.02.
For the sequence TTTGTAAACA, the switch fluorescence ratio came to 2.03.
Turning to GGCATCGACT, the switch fluorescence ratio worked out at 1.06.
Regarding GCTTAACTG, the switch fluorescence ratio worked out at 0.968.
Take CTCAAGAT: the switch fluorescence ratio was 1.12.
With AAGGGACGAG the figure was 1.07; with TAATAACAGG, 1.01.
The same measure for GGAACTCTAT: 0.998.
Take GTTCGGATGT: the switch fluorescence ratio is 0.987.
With GTAAATTCTA the figure was 1; with GAGAGCAATT, 1.94; with TATGGTAAT, 0.98.
As to GCGTCTGCAC, the switch fluorescence ratio is 1.07.
For TAGGTTTAGA, the switch fluorescence ratio is 1.02.
Turning to TGAAGAGCTA, the switch fluorescence ratio is 1.02.
Take AGATGGAAGC: the switch fluorescence ratio was 0.971.
As to TTTTGTAAG, the switch fluorescence ratio was 1.01.
Turning to CGGGTGAGCC, the switch fluorescence ratio is 1.02.
With AAAGGAGAGA, the switch fluorescence ratio turned out to be 0.995.
As to GTAGTCAATC, the switch fluorescence ratio came to 2.96.
In the case of CGTTACCGGC, the switch fluorescence ratio stood at 0.96.
With CACTCGTGTT, the switch fluorescence ratio is 0.989.
TTGGCTCTGT: the switch fluorescence ratio worked out at 0.996.
As to CAATCTGGCC, the switch fluorescence ratio is 1.02.
